Source: PubChem BioAssay AID1345083 (National Center for Advancing Translational Sciences (NCATS), 2018)
Among all 94,000 compounds or so, about 6,200 (6.6%) were called active. The shares of active, inactive and inconclusive entries below differ from those in the screen. Calls come from the whole dose curve; as a rule, active = well fitted inhibition curve with a large enough effect; inconclusive = small, poorly fitted or top-dose-only effect; inactive = flat fitted curve, though single readings scatter. Potencies beside an inconclusive call are fits to weak or partial responses and may not hold up.

Assay: Cytotoxic Profiling in HEK 293 Cell Line of Diverse Libraries Using Quantitative High-Throughput Screening; note: nearly all actives have a fitted effect of over 60% in size
Details: HEK 293 viability, ATP luminescence (CellTiter-Glo), 48-72 h; series mostly up to 115 µM
In short: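 Cytotoxicity was scored by loss of ATP-coupled luminescence (CellTiter-Glo) in HEK 293 cells. Compound treatment ran 48 or 72 hr at 37 degree Celsius, 5% CO2, 95% humidity.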
Potency is the fitted concentration of half-maximal effect; tags give direction and shape of the fitted curve.

| SMILES | Potency |
| --- | --- |
| Fc1ccc(CN2Cc3[nH]cnc3C[C@H]2c2nc(-c3ccc(F)c(Cl)c3)no2)cc1 | inconclusive: 79.4 µM [inhibitor, partial curve, poor fit] |
| CCn1ncc(N2CCCC(CC(=O)NCc3ccc(F)cc3)C2)cc1=O (centres undefined) | inconclusive: 79.4 µM [inhibitor, partial curve] |
| COc1ccc(CN2CCCCC23Cc2ccccc2CNC3=O)c(OC)n1 (centres undefined) | inconclusive: 79.4 µM [inhibitor, single point] |
| O=C1c2cnc(-c3cccc(C(F)(F)F)c3)nc2OCCN1Cc1ccccc1 | inconclusive: 70.8 µM [inhibitor, partial curve] |
| Cc1ccc(CN2Cc3[nH]cnc3C[C@H]2C(=O)NCc2ccc(C(F)(F)F)cc2)cc1 | active: 70.8 µM |
| O=C(NCc1ccccc1F)c1ccc2c(c1)CN(Cc1ccncc1)CCO2 | inconclusive: 56.2 µM [inhibitor, partial curve, poor fit] |
| COC(=O)c1cccc(NC(=O)c2ccc3c(c2)N(C)C2CCCCN2C3=O)c1 (centres undefined) | inconclusive: 39.8 µM [inhibitor, partial curve, poor fit] |
| O=C(NCCc1ccccc1F)C1CCc2nnc(C3CCN([S+](=O)([O-])c4ccccc4Cl)CC3)n21 (centres undefined) | inactive |
| CNC(=O)C1CCN(c2nccc(Nc3ccc(OC)cc3)n2)CC1 | inactive |
| O=C(NCCn1cccc1-c1nc(-c2ccc3c(c2)OCO3)no1)c1ccc(F)cc1 | inconclusive: 31.6 µM [inhibitor, full curve] |
| COc1ccc(NC(=O)Cn2c(-c3ccc(Cl)cc3)nc(C)cc2=O)cc1 | inconclusive: 50.1 µM [inhibitor, partial curve, poor fit] |
| Cn1ccnc1CN1CCN(c2nccc(-c3ccccn3)n2)CC1 | inactive |
| Cc1ccccc1Cn1cc(-c2ccncc2)cc1C(=O)N1CCCC(C)C1 (centres undefined) | active: 44.7 µM |
| Cc1nc(N2CCC(NC(=O)c3ccc[nH]3)CC2)cc(C(F)(F)F)n1 | inactive |
| COCC(=O)NC1CCCc2c1[nH]c1ccc(F)cc21 (centres undefined) | inconclusive: 50.1 µM [inhibitor, partial curve, poor fit] |
| c1ccc(O[C@H]2COCCN(Cc3ccc(-c4ccccc4)cc3)C2)cc1 | inactive |
| COc1ccc(S(=O)(=O)N2C[C@@H]3C[C@H](C2)c2ccc(NC(=O)c4ccncc4)c(=O)n2C3)cc1 | inconclusive: 89.1 µM [inhibitor, single point] |
| Cc1ccc(CC(=O)N2CCC(c3n[nH]c(=O)n3Cc3ccc(F)cc3)CC2)cc1 | inactive |
| COc1ccc(C(=O)NC2CN(c3ccnc4ccnn34)C2)cc1 | inactive |
| O=C1CCN(S(=O)(=O)c2ccccc2)CCCN(S(=O)(=O)c2ccc3c(c2)CCC3)CCN1 | inconclusive: 89.1 µM [inhibitor, single point] |
| CCCC(=O)N1Cc2ccccc2CC2(CCN(C)C2)C1 (centres undefined) | inconclusive: 126 µM [inhibitor, partial curve, poor fit] |
| CN(C)c1nc(CN2CC(C)(Cc3ccc4c(c3)OCO4)CCC2=O)cs1 (centres undefined) | inconclusive: 50.1 µM [inhibitor, partial curve, poor fit] |

| SMILES | Potency |
| --- | --- |
| Cc1ccc(CNC(=O)C2(c3ccc(NC(=O)C4CC4)cc3)CCC2)cc1 | inconclusive: 89.1 µM [inhibitor, single point] |
| CCC(CC)C(=O)N1CCC2(CC1)C(=O)N(CC)c1ccccc12 | inconclusive: 50.1 µM [inhibitor, partial curve, poor fit] |
| CC(C)CNC(=O)c1ccc2c(c1)NC(C)(COCC1CC1)CO2 (centres undefined) | inconclusive: 100 µM [inhibitor, partial curve] |
| COc1ccc(NC(=O)c2cnc3n2CCN(Cc2ccccc2)CC3)cc1 | inconclusive: 112 µM [inhibitor, partial curve, poor fit] |
| CC(C)(C)C1CN(Cc2ccccc2)C(=O)c2cccnc2O1 (centres undefined) | inconclusive: 89.1 µM [inhibitor, single point] |
| Cc1nn(-c2ccccc2)c(Oc2ccc(F)cc2F)c1CCC(=O)NCC1CC1 | inconclusive: 44.7 µM [inhibitor, partial curve, poor fit] |
| COc1ccc(C(=O)N2CCC(n3cc(-c4nc(-c5ccccc5)no4)nn3)C2)cc1OC (centres undefined) | inconclusive: 50.1 µM [inhibitor, partial curve, poor fit] |
| Cc1cc(=O)n(CC(=O)Nc2ccc(Cl)cc2F)c(N(C)Cc2ccccc2)n1 | inconclusive: 10 µM [inhibitor, full curve, poor fit] |
| COc1ccc(-c2cc(N3CCN(C(=O)c4cccc(OC)c4)CC3)n[nH]2)cc1 | inconclusive: 79.4 µM [inhibitor, partial curve, poor fit] |
| O=C(C1CC(=O)N(c2n[nH]c3cccc(F)c23)C1)N1CCC(Cc2ccccc2)CC1 (centres undefined) | inconclusive: 50.1 µM [inhibitor, partial curve, poor fit] |
| CCNc1ccnc(NC2CCCc3c2cnn3-c2ccc(C)c(C)c2)n1 (centres undefined) | active: 39.8 µM |
| CN(C)Cc1ccc(-c2cc(-c3ccncc3)c3cncn3c2)cc1 | active: 89.1 µM |
| CCCc1nc(C(=O)N[C@@H]2[C@@H](Cc3ccccc3)[C@H]3OCC[C@@H]23)cs1 | inconclusive: 89.1 µM [inhibitor, partial curve, poor fit] |
| O=C(NCc1c[nH]c2ncccc12)c1ccc(F)cc1 | inactive |
| O=C1NCCCCCCN(Cc2ccncc2)[C@@H]2CN(C(=O)c3ccncc3)CC[C@@H]12 | inactive |
| CSCCCN1CCC2(CCN(Cc3cccc(O)c3)CC2)C(CO)C1 (centres undefined) | inconclusive: 50.1 µM [inhibitor, partial curve, poor fit] |
| Cc1ccc2c(n1)N(C)[C@H](CO)CCN(Cc1cccc(Cl)c1)C2 | inconclusive: 89.1 µM [inhibitor, partial curve, poor fit] |
| Cc1noc(-c2cn(C3CCN(C(=O)COc4ccc(F)cc4)C3)nn2)n1 (centres undefined) | inactive |
| Cc1ccc(C(=O)N2CCC(Cc3nc(C(C)C)no3)CC2)cc1C | inconclusive: 44.7 µM [inhibitor, partial curve] |
| O=C(O)c1ccc(CN2CCC[C@H]2c2nc(-c3ccc(OC4CCCCC4)nc3)no2)cc1 | inactive |
| CCN(CC)C(=O)N1C[C@@H](Oc2cccnc2)C[C@@H]1C(=O)NC | inconclusive: 100 µM [inhibitor, single point] |
| Cc1cc(=O)n(CC(=O)Nc2ccc(F)cc2)c(-c2ccccc2)n1 | inconclusive: 44.7 µM [inhibitor, partial curve, poor fit] |

| SMILES | Potency |
| --- | --- |
| O=C(Cn1ccn2nc(-c3ccccc3)c(CO)c2c1=O)N1CCC(Cc2ccccc2)CC1 | inconclusive: 44.7 µM [inhibitor, partial curve, poor fit] |
| COc1ccc(CNC(=O)C2CCCN(c3nccc(Nc4ccc(OC)cc4)n3)C2)cc1 (centres undefined) | active: 28.2 µM |
| O=C(c1cccs1)N1CCC(Oc2ccccc2)C1 (centres undefined) | inconclusive: 89.1 µM [inhibitor, single point] |
| O=C1Nc2ccccc2CC12CCN2Cc1ccc(OC(F)(F)F)cc1 (centres undefined) | active: 44.7 µM |
| CCOC(=O)[C@@H]1CN(C(=O)OCC(C)C)[C@H]2c3ccccc3O[C@@H]12 | inconclusive: 79.4 µM [inhibitor, partial curve, poor fit] |
| CN(C)CCC(=O)N1Cc2ccccc2CC2(CCCN(CC3CCNCC3)C2)C1 (centres undefined) | inactive |
| CN1c2cc(C(=O)NC3CCCCC3)ccc2C(=O)N2CCCCCC21 (centres undefined) | inconclusive: 79.4 µM [inhibitor, single point] |
| Cc1ccccc1NC(=O)N1CCC(CCNC(=O)C2(c3ccccc3)CC2)CC1 | inconclusive: 89.1 µM [inhibitor, single point] |
| CC(C)CCNC(=O)c1cnc2n1CCN(Cc1ccccc1Cl)CC2 | inconclusive: 100 µM [inhibitor, partial curve] |
| CC(C)c1nc2c(c(-c3ccc(O)cc3)n1)CCN(C(=O)c1ccccc1F)CC2 | inactive |
| CN1CCC(NC(=O)c2ccc3c(c2)n(Cc2ccc(F)cc2)c(=O)c2ccnn23)CC1 | active: 25.1 µM |
| Cc1ccc(CNC(=O)C2CCc3nc(N4CCN(C(=O)C(C)C)CC4)sc3C2)o1 (centres undefined) | active: 79.4 µM |
| COc1cccc(CN2CCOc3ccc(C(=O)NCc4ccc(C)cc4)cc3C2)n1 | inconclusive: 79.4 µM [inhibitor, partial curve] |
| Cn1cc(CN2CC[C@H](c3nc4ccccc4[nH]3)C2)c2ccccc21 | active: 50.1 µM |
| COc1ccc(-c2nc(C3CC(=O)N(c4ccc(F)cc4)C3)no2)c(OC)c1 (centres undefined) | inconclusive: 79.4 µM [inhibitor, partial curve, poor fit] |
| CCCn1cc(CN2C[C@@H]3C(=O)N(Cc4ccc5c(c4)OCO5)C(=O)[C@@H]3C2)c2ccccc21 | inconclusive: 89.1 µM [inhibitor, single point] |
| Cc1ccc(NC(=O)c2cc3n(n2)CC(c2ccc4c(c2)OCO4)OC3)cc1Cl (centres undefined) | inconclusive: 39.8 µM [inhibitor, full curve, poor fit] |
| CCOC(=O)C[C@@H]1C[C@@H](C(C)C)[C@H](CNC(=O)C2CC2)C=C1C | inconclusive: 89.1 µM [inhibitor, partial curve, poor fit] |
| O=C(CCn1ccn2nc3c(c2c1=O)CCCC3)NCc1ccccc1Cl | inconclusive: 100 µM [inhibitor, single point] |
| COc1cccc(NC(=O)c2ccc3c(c2)NC(C)(CNc2ccccc2)CO3)c1 (centres undefined) | active: 39.8 µM |
